Experimental data from patent US20210260159A1 (published 2021).

Key:
[1] = target: T1, human CD40 on cells (HEK293 transfected with human CD40); Ramos-Blue B-lymphocytes; human B cells; human … (human, UniProt P25942 21-277); assay: cell-based or functional assay
[2] = target: T1, human CD40 on cells (HEK293 transfected …); assay: cell-based or functional assay; remark: listed apart in the source

Sequence of UniProt P25942 (P25942 21-277 limits assumed): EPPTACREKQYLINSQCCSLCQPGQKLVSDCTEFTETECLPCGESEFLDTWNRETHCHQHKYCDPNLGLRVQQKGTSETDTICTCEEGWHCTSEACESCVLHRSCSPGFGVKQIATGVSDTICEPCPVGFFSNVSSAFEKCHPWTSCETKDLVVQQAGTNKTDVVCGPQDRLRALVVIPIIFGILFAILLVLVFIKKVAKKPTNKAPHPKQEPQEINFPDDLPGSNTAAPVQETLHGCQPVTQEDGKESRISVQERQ

EC50 (nM), NFkB-luciferase reporter, HuCD40 293 HEK NFkB c3 cells [1]: 0.438 nM
EC50 (nM), NFkB/AP-1 reporter, Ramos-Blue B-cells [2]: 0.107 nM
B1: scCD40L-IgG4P-FP7 (Fc fusion)
chain: NPQIAAHVISEASSKTTSVLQWAEKGYYTMSNNLVTLENGKQLTVKRQGLYYIYAQVTFCSNREASSQAPFIASLWLKSPGRFERILLRAANTHSSAKPCGQQSIHLGGVFELQPGASVFVNVTDPSQVSHGTGFTSFGLLKLGGGGSGGGGSGGGGSQIAAHVISEASSKTTSVLQWAEKGYYTMSNNLVTLENGKQLTVKRQGLYYIYAQVTFCSNREASSQAPFIASLWLKSPGRFERILLRAANTHSSAKPCGQQSIHLGGVFELQPGASVFVNVTDPSQVSHGTGFTSFGLLKLGGGGSGGGGSGGGGSQIAAHVISEASSKTTSVLQWAEKGYYTMSNNLVTLENGKQLTVKRQGLYYIYAQVTFCSNREASSQAPFIASLWLKSPGRFERILLRAANTHSSAKPCGQQSIHLGGVFELQPGASVFVNVTDPSQVSHGTGFTSFGLLKLGGGGSGGGGSGGGGS[human IgG4 Fc with S228P (EU numbers) not given here]
